The other results are listed elsewhere or left out. Values come from read counts of a selection and are noisy.
Test system: SARS-CoV-2 3CLpro (nsp5)
Assay: substrate phage enrichment score (protease-eluted vs HEPES control, +1 offset) (ratio); higher = better cleaved substrate
Settings: selection round: 4; protease elution time: 15 min
Procedure: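 Random heptapeptide substrate phage display (M13 pIII fusion, heptapeptide between an N-terminal biotinylated AviTag GLNDIFEAQKIEWHE and pIII; phages immobilised on streptavidin) eluted by cleavage with 50 nM protease in 20 mM HEPES at 37 °C. Selected phages were NGS sequenced, and the enrichment score is (reads in protease sample + 1)/(reads in HEPES blank-selection control + 1).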

Substance	substrate phage enrichment score
YSQNDGT	> 159
LNRCTGR	1.88
LQGISRQ	5.5
SNAAHHH	1.03
RHLELNS	4.75
ERTPTTQ	> 43
KLETPCR	2.11
ASAHHHH	1.07
SHPQRLE	2.27
ESHQAAH	5.1
TRSCQQC	0.769
CLKTAML	1
CEAKNRS	1.27
SRATMPG	> 32
APRNVGV	> 25
LSAAHHH	0.706
NEKHTWI	0.222
TTGMPLH	> 23
DGGAKMS	> 26
PEPTMFQ	> 31
AYVKLQD	2.4
VIEATPE	> 36
KCCTLQA	> 34
LAEYRDR	8
YSPCQDR	3.25

Substance	substrate phage enrichment score
EPAAHHH	0.375
TERPHLH	18
CEAVKRP	0.263
KRDLNRL	2.25
AGQLQLN	1.75
AMRGEYR	0.476
GALRHVD	10.5
RGHVHCR	0.483
SAAAHNH	1.13
TVAAHHH	0.542
RIDQKPM	2.43
PKQYYIG	> 21
EAYSNLQ	> 48
LGLVCRG	> 36
RPAHSIR	4
VLQGRET	> 102
RNDVVQK	10
AGNGMPW	0.333
NYGQGRH	> 34
VPISVLQ	> 35
QEFHTRA	> 34
QCKVRST	6.75
AGCESRG	0.24
ICNSGNE	1.09
TNRVNLQ	> 43

Substance	substrate phage enrichment score
PMSKHWQ	11.5
CEAAHHH	1.06
HDNPRWT	> 21
SHARCYG	5
TPKCGPG	2.73
PVACQHA	0.143
SLPQTKD	1.88
SNSCYEW	7.2
CVHMQSG	> 88
GKLQSAT	> 85
ICTMSAT	1.05
QSYEVQA	9.17
QGNSPNP	0.37
DLWFTTR	0.923
HEECESG	6.67
GNHRVCS	> 32
PCQQYPC	> 31
VKATRTI	1.92
AHREEIP	0.953
QNGTKTT	> 67
NRKSEST	0.714
REKHQQV	> 22
PNTTRQS	> 49
MKQPRPN	17.5
AKGTLTR	4

Substance	substrate phage enrichment score
TTKLGRD	> 113
WKSHSGR	> 23
NCCSLRC	0.2
RAHVPTE	2.39
RTTTSPL	1.76
RQYFQGG	4.09
PGGQYHR	> 57
AGLMCSP	1.61
NTILQAD	> 63
VDTQAQH	1.67
DKRTTDW	> 123
VILQSCS	> 29
CYNSHAS	2.42
ELKSRQT	2.43
RDFCVLQ	> 64
SQPKPKP	1.09
NTQVSRF	0.912
SAATHHH	0.562
VKTQASE	4.24
TKKHFGQ	0.68
NGRRGMN	2.46
KPILQSS	> 115
IDCRGLT	0.286
CAHTTLQ	> 44
LTGRGTY	11

Source: the supplement of paper PMC10185492
